Experimental data taken from PubChem BioAssay AID686979 (National Center for Advancing Translational Sciences (NCATS), 2013).
Several values for one entry are separate records, joined by “and”; a condition that tells them apart may be missing. Equal entries are not always repeated. Screen size: about 420,000 compounds; about 50,000 (12%) were called active. This list was built around the results that the source calls inconclusive (neither active nor inactive); the mix of calls is not that of the screen. Calls follow the shape of the dose curve; as a rule, active = well fitted inhibition curve with a large enough effect; inconclusive = small, poorly fitted or top-dose-only effect; inactive = flat fitted curve, though single readings scatter. Potencies beside an inconclusive call are fits to weak or partial responses and may not hold up.

Experiment: qHTS for Inhibitors of human tyrosyl-DNA phosphodiesterase 1 (TDP1): qHTS in cells in presence of CPT; also: nearly all actives have a fitted effect of over 55% in size
Details: chicken DT40 Tdp1-/-;hTDP1 cells + 20 nM CPT, ATP luminescence, 48 h; activity change, negative = growth inhibition: at 46.2 µM (top of the series) unless noted
How it was run: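 Chicken DT40 Tdp1-/- cells stably complemented with human TDP1 were seeded at 400 cells/well in medium containing 20 nM camptothecin, exposed to pin-transferred compounds, and grown at 37 °C for at least 48 hr. Viability was read as ATP luminescence.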
% is scaled to controls: 0 for no effect and ±100 for the full control effect; potency is read from the fitted curve at half-maximal effect; tags tell the direction and shape of the fitted curve.

Row | Compound | activity change, negative = growth inhibition | Potency
1 | COc1cc(/C=N/NC(=O)CN2CC(c3ccccc3)CC2=O)ccc1OC(=O)N(C)C (stereo not drawn) | inactive: -5.98% | –
2 | CSCC[C@H](NC(=O)[C@H](Cc1ccccc1)NC(=O)CNC(=O)CNC(=O)[C@@H](N)Cc1ccc(O)cc1)C(=O)O | inactive: -0.194% [at 4.12 µM] | –
3 | C=CC12CN(C)[C@@H]3C4CO[C@H](C[C@H]41)[C@]1(C(=O)Nc4ccccc41)[C@@H]32 (stereo partly drawn) | inactive: 8.01% | –
4 | O=C(c1ccc2c(c1)N(Cc1ccc(F)cc1)CCS2)N1CCC2(CC1)OCCO2 | – | inconclusive: 23.1 µM [inhibitor, single point]
5 | O=c1[nH]c(=S)n(C2CCCCC2)c(O)c1/C=N/N1CCOCC1 | inactive: -0.618% | –
6 | COC(=O)C1=Nc2ccccc2/C1=C\c1c(O)n(-c2ccc(Br)cc2)c(=O)[nH]c1=O | – | inconclusive: 29.1 µM [inhibitor, single point]
7 | CNc1ccc2oc(C[C@H]3O[C@]4(CC[C@H]3C)O[C@H]([C@H](C)C(=O)c3ccc[nH]3)[C@H](C)C[C@H]4C)nc2c1C(=O)O | – | active: 1.5 µM
8 | Cc1ncc(CO)c(CN)c1O | – | inconclusive: 5.31 µM [inhibitor, single point]
9 | COc1ccc(-c2nc(CN3C(=O)CN=C(c4ccccc4Cl)c4cc(Cl)ccc43)c(C)o2)cc1OC | – | inconclusive: 23.1 µM [inhibitor, single point]
10 | O=C(Oc1ccc(Br)cc1C(=S)N1CCCC1)c1ccccc1Cl | – | inconclusive: 23.1 µM [inhibitor, single point]
11 | CCOC(=O)c1cc(C)sc1/N=C/C1C(=O)NC(=S)NC1=O | inactive: 4.2% | –
12 | O=C(Cn1cc(C(=O)c2ccccc2)c2ccccc21)Nc1ccc(Br)cc1 | – | inconclusive: 16.4 µM [inhibitor, single point]
13 | NCC(O)c1ccc(O)cc1 (stereo not drawn) | – | inconclusive: 0.335 µM [inhibitor, full curve, poor fit]
14 | CC(=O)c1cccc(NC(=O)c2cc3c(s2)-c2c(C)cccc2OC3)c1 | – | inconclusive: 29.1 µM [inhibitor, single point]
15 | Cc1ccc2c(c1)CC1(CN2C)C(=O)NC(=O)N(CCc2ccccc2)C1=O (stereo not drawn) | – | inconclusive: 5.8 µM [inhibitor, full curve]
16 | Cc1ccc(Cl)cc1N1CCN(C(=O)c2cn(CC(C)C)c(=O)c3c2c2ccccc2n3C)CC1 | – | active: 6.51 µM
17 | CC(Cc1ccccc1)NC(=O)C(c1ccc(N)cc1)c1ccc(N)cc1 (stereo not drawn) | – | active: 11.6 µM
18 | COC(=O)C1=C(c2ccc(OCc3ccccc3)cc2)C[C@@H]2CC[C@H]1N2C(=O)NCc1ccc(N(C)C)cc1 | – | inconclusive: 29.1 µM [inhibitor, single point]
19 | CNC1[C@@H](O)C(OC2C(N)C[C@H](N)[C@@H](O[C@@H]3OC(C(C)O)C(O)C(O)C3N)C2O)OC[C@]1(C)O (stereo partly drawn) | – | inconclusive: 29.1 µM [inhibitor, single point]
20 | COC(=O)C1=C(c2ccccc2)C[C@@H]2CC[C@H]1N2C(=O)NC1CCCCC1 | – | inconclusive: 11.6 µM [inhibitor, partial curve, poor fit]
21 | COc1cc(NC(=O)c2cccc3c(-c4cccnc4)coc23)cc(OC)c1OC | – | active: 3.66 µM
22 | Cc1cccc(C)c1-n1nnnc1C(C1CC1)N1CCC2(CC1)C(=O)NCN2c1ccccc1 (stereo not drawn) | – | active: 16.4 µM
23 | COC(=O)C1=C(c2ccccc2OCc2ccccc2)C[C@@H]2CC[C@H]1N2C(=O)NCCOc1ccc(OC)cc1 | – | inconclusive: 23.1 µM [inhibitor, single point]

Row | Compound | activity change, negative = growth inhibition | Potency
24 | N[C@@H](Cc1c[nH]c2ccccc12)c1nnc(SCc2c(F)cccc2Cl)o1 | inactive: -13% | –
25 | CC[C@@H]1c2ccccc2[C@@H]2CC[C@H]1N2c1ccccc1 | – | inconclusive: 25.9 µM [inhibitor, single point]
26 | CSc1ccc(CN2CCN(c3ccccc3C)CC2)cc1 | – | inconclusive: 29.1 µM [inhibitor, single point]
27 | COc1ccc(-n2c(-c3ccccc3F)nc3ccccc3c2=O)cc1 | – | inconclusive: 23.1 µM [inhibitor, partial curve]
28 | O=C(Oc1ccccc1)N1CCC[C@@]2(CCN(Cc3ccccc3)C2)C1 | inactive: -2.71% | –
29 | CCCCn1c(=O)c(C(=O)Nc2ccc(C)cn2)c(O)c2ccccc21 | – | active: 13 µM
30 | CN(CC(=O)Nc1cccc(F)c1)CC(=O)Nc1cccc(S(=O)(=O)N(C)c2ccccc2)c1 | – | active: 23.1 µM
31 | CCN1CCN(C(=O)COc2ccc(S(=O)(=O)Nc3ccc(Cl)cc3)cc2)CC1 | – | inconclusive: 23.1 µM [inhibitor, single point]
32 | COc1ccc(OCC(=O)N2CCN(CCc3ccccn3)CC2)cc1 | inactive: 5.04% | –
33 | O=C(NCCc1ccccc1)[C@@H]1CC=C[C@@H]2CCN(Cc3ccc(Cl)c(Cl)c3)C(=O)[C@@H]21 | – | active: 3.98 µM
34 | NCCc1c(Cc2ccccc2)[nH]c2ccccc12 | inactive: -22.9% | –
35 | CN(C(=O)Oc1ccc(C(C)(C)C)cc1)c1ccccc1 | inactive: -15.7% | –
36 | Cc1nc2cc(OC(=O)N(C)Cc3cccc(-c4ccncc4)c3)ccc2s1 | – | inconclusive: 20.6 µM [inhibitor, single point]
37 | CC(=O)C1CCC2C3CCC4CC(O)CCC4(C)C3CCC12C (stereo not drawn) | – | inconclusive: 25.9 µM [inhibitor, single point]
38 | COc1cc(CC(C)N)c(OC)cc1Br (stereo not drawn) | – | inactive and inconclusive: 50.4 µM [inhibitor, partial curve, poor fit]
39 | Clc1ccc(OCCCN2CCCC2)cc1Cl | – | inconclusive: 25.9 µM [inhibitor, single point]
40 | COC(=O)C1=C(c2ccc(S(C)(=O)=O)cc2)C[C@@H]2CC[C@H]1N2C(=O)NCc1ccc(C(F)(F)F)cc1 | inactive: -27.5% | –
41 | COc1ccc(-n2nnnc2C(c2cccs2)N2CCC(n3c(=O)[nH]c4ccccc43)CC2)cc1 (stereo not drawn) | – | active: 11.6 µM
42 | O=C(CCN1CCOCC1)Nc1ccc(Br)cc1C(=O)c1ccccc1 | – | inconclusive: 23.1 µM [inhibitor, single point]
43 | O=C(NCC1=C(c2ccc3ccccc3c2)C[C@@H]2CC[C@H]1N2Cc1ccco1)c1nccs1 | – | inconclusive: 23.1 µM [inhibitor, single point]
44 | COc1ccc(N2CC2c2ccncc2)cc1 (stereo not drawn) | – | inconclusive: 14.6 µM [inhibitor, partial curve, poor fit]
45 | COc1cc2c(cc1OC)C(C(=O)N1CCC3(CC1)OCCO3)C(c1ccccc1F)N(C)C2=O (stereo not drawn) | inactive: -12% | –
46 | O=C1Nc2ccccc2/C1=C/c1nc2ccccc2c(=O)n1-c1ccc(O)cc1 | – | inconclusive: 23.1 µM [inhibitor, single point]

Row | Compound | activity change, negative = growth inhibition | Potency
47 | COC(=O)C1=C(c2ccccc2)C[C@@H]2CC[C@H]1N2C(=O)NC(C)C | inactive: -16.4% | –
48 | CCOC(=O)C1CCN(Cc2ccc(Cl)nc2)CC1 | inactive: 31.2% | –
49 | C[C@H](CO)N1C[C@H](C)[C@@H](CN(C)C(=O)NC2CCCCC2)Oc2c(cccc2N(C)C)C1=O | – | inconclusive: 18.4 µM [inhibitor, partial curve]
50 | CC(C)(C)C(O)C(Oc1ccc(Cl)cc1)n1cncn1 (stereo not drawn) | – | inconclusive: 68.6 µM [inhibitor, single point]
51 | Fc1ccc(Cn2nnnc2C(c2ccc(Cl)cc2)N2CC=C(c3ccc(F)cc3)CC2)cc1 (stereo not drawn) | – | inconclusive: 29.1 µM [inhibitor, single point]
52 | CC1CCC(C(C)C)C(OC(=O)c2ccccc2N)C1 (stereo not drawn) | – | inconclusive: 33.5 µM [inhibitor, single point]
53 | C[C@H](CO)N1C[C@H](C)[C@@H](CN(C)C(=O)c2ccc3c(c2)OCO3)Oc2cc(/C=C/c3ccccc3)ccc2S1(=O)=O | – | active: 20.6 µM
54 | COc1ccc(CCNCc2ccncc2)cc1OC | inactive: -24.6% | –
55 | C[n+]1c(-c2ccccc2)c2cc(N)ccc2c2ccc(N)cc21 | – | active: 0.517 µM
56 | C=CCn1c(O)c(C(C)=Nc2ccc3c(c2)CCC3)c(=O)[nH]c1=O | – | inconclusive: 11.6 µM [inhibitor, partial curve, poor fit]
57 | CCC(=NC1CCN(Cc2ccccc2)CC1)c1c(O)[nH]c(=O)[nH]c1=O | – | inconclusive: 29.1 µM [inhibitor, single point]
58 | Cc1sc2ncnc(SCC(=O)Nc3ccc(S(=O)(=O)N4CCOCC4)cc3)c2c1C | – | active: 23.1 µM
59 | c1ccc(CCNCc2ccccc2)cc1 | inactive: 4.43% | –
60 | COc1ccccc1CCNC1CCCC(C)C1 (stereo not drawn) | inactive: -2.07% | –
61 | CCc1nnc(NS(=O)(=O)c2ccc(N=Cc3c(O)n(-c4ccc(Cl)cc4)c(=O)[nH]c3=O)cc2)s1 | – | inconclusive: 29.1 µM [inhibitor, single point]
62 | COc1ccc(CCNCc2cccc(C(F)(F)F)c2)cc1OC | – | inconclusive: 1.84 µM [inhibitor, full curve, poor fit]
63 | CN(C)S(=O)(=O)c1cc(NC(=O)COC(=O)Cc2ccccc2)ccc1Cl | – | inconclusive: 29.1 µM [inhibitor, single point]
64 | CCN1CCC(O)(c2ccccc2)C(C(=O)c2ccccc2)C1 (stereo not drawn) | – | active: 2.59 µM
65 | OC12Oc3ccccc3C=C1N1CCC2CC1 (stereo not drawn) | inactive: -6.27% | –
66 | O=C(COc1ccc(S(=O)(=O)N2CCOCC2)cc1)N1CCN(Cc2ccc3c(c2)OCO3)CC1 | – | inconclusive: 25.9 µM [inhibitor, single point]
67 | C[C@H](CCC(=O)O)[C@H]1CC[C@H]2[C@@H]3C(=O)C[C@@H]4CC(=O)CC[C@]4(C)[C@H]3CC(=O)[C@]12C | – | inconclusive: 1.5 µM [inhibitor, full curve, poor fit]
68 | COC(=O)C1=C(c2ccc(OCc3ccccc3)cc2)C[C@@H]2CC[C@H]1N2C | – | active: 16.4 µM
